molecular target: Gelatinase E (GelE) (Enterococcus faecalis, UniProt Q833V7); assay: biochemical
Protocol: E. faecalis was cultured aerobically in Todd Hewitt Broth overnight at 37° C. Nucleic acid is precipitated with 0.9% protamine solution, followed by protein precipitation with ammonium sulfate. Resuspended protein pellet was further subjected to purification using FPLC (phenyl Sepharose column). Fractions with gelatinase activity as determined by casein agar assay were pooled and further concentrated.
Different concentrations of test compound were incubated with purified GelE and FRET-based peptide substrate (390 MMP FRET Substrate 1; AnaspecAS-27077) in assay buffer at room temperature for 30 minutes. The fluorescence signal was determined by a plate reader.

SMILES	IC50
COC(=O)c1ccc(NC(=O)CSC(N)=O)cc1 [Compound 2]	155 µM
CC(=O)SCC(=O)Nc1ccc(C(C)=O)cc1 [Compound 4]	1.53 µM
CNC(=O)COc1ccc(NC(=O)CSC(N)=O)cc1 [Compound 10]	> 200 µM
NC(=O)SCC(=O)Nc1ccc(C(=O)CC(F)(F)F)cc1 [Compound 9]	> 160 µM
CNC(=O)C(C)Oc1ccc(NC(=O)CSC(N)=O)cc1 (stereo not shown) [Compound 11]	45.4 µM
CNC(=O)[C@H](Cc1ccccc1)NC(=O)c1ccc(NC(=O)CSC(N)=O)cc1 [Compound 7]	> 100 µM
CC(=O)c1ccc(NC(=O)CSC(N)=O)cc1 [Compound 1, S-(2-((4-acetylphenyl)amino)-2-oxoethyl) carbamothioate]	33.7 µM
COc1ccc(NC(=O)CSC(C)=O)cc1 [Compound 6]	4.16 µM
COC(=O)c1ccc(NC(=O)CSC(C)=O)cc1 [Compound 5]	28.9 µM
CCC(=O)c1ccc(N2C(=N)SCC2=O)cc1 [Compound 16]	> 37.8 µM
CC(=O)n1cc(NC(=O)CSC(N)=O)cn1 [Compound 12]	> 100 µM
COc1ccc(NC(=O)CSC(N)=O)cc1 [Compound 3]	60.1 µM
CNC(=O)[C@H](C)NC(=O)c1ccc(NC(=O)CSC(N)=O)cc1 [Compound 8]	> 100 µM

From patent US20250320181A1 (priority 2021, published 2025)
